# Test results from PubChem BioAssay AID588795 (National Center for Advancing Translational Sciences (NCATS), 2011).
# About 1,400 (0.36%) of roughly 390,000 compounds were called active. Inconclusive means that the source gave no clear call. Such entries were picked first, then a sample of the others. The call rests on the fitted dose curve; in most records, active means well fitted inhibition curve with a large enough effect; inconclusive means small, poorly fitted or top-dose-only effect; inactive means no such curve, though single readings can be large or run the other way. Where the call is inconclusive, the potency comes from a doubtful curve fit. Some structures have more than one record in an assay (separate samples or runs), and their calls can disagree.
# Biological target: Flap endonuclease 1 (Homo sapiens) (UniProt P39748)
# Chain of UniProt P39748 (P39748 whole entry, looked up): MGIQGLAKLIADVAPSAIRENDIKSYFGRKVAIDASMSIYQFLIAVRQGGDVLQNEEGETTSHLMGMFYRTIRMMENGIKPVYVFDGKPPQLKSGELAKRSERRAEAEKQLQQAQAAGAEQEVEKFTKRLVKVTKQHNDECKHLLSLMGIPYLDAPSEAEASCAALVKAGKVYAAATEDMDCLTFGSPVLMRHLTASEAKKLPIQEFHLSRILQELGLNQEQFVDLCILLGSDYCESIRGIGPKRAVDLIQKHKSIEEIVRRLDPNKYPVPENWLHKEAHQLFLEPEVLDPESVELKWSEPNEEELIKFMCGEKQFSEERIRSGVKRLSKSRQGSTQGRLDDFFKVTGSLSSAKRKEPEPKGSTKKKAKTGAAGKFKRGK
# Assay: qHTS Assay for the Inhibitors of Human Flap endonuclease 1 (FEN1). Further: nearly all actives have a fitted effect of over 65% in size.
# Conditions: Recombinant FEN1 flap cleavage, fluorescence, 15 min; series mostly up to 114 µM; activity change, negative = inhibition: at the top concentration
# How it was run: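 Steps: FEN1 (10 nM) dispensed; compound added by pin tool; 15 min at room temperature; substrate added to 50 nM final; reads at 0 min and 15 min; data normalized and fitted (four-parameter Hill).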
# On the % scale 0 is the no-effect control and ±100 the full control effect; potency means the concentration at half of the fitted maximal effect; tags describe the fitted curve by direction and shape.
SMILES,Potency,"activity change, negative = inhibition"
Cc1ccc(N2C(=O)NC(=O)/C(=C\c3cc(C)n(-c4cc(C(=O)O)cc(C(=O)O)c4)c3C)C2=O)cc1,active: 56.2 µM,
O=C1NC(=O)N(c2ccccc2F)C(=O)/C1=C/c1ccc(Sc2nc3ccccc3[nH]2)o1,"inconclusive: 39.8 µM [inhibitor, partial curve]",
Nc1c(C(=O)NC2CCCC2)c2nc3ccccc3nc2n1CC1CCCO1 (stereo not drawn),"inconclusive: 50.1 µM [inhibitor, partial curve, poor fit]",
C[N+]1(C)CCN(c2ccccc2)CC1,"inconclusive: 7.52 µM [inhibitor, partial curve, poor fit]",
COc1ccccc1NC(=O)COC(=O)c1cn(C)c2ccccc12,,inactive: 2.21%
COc1ccc(Cn2c(O)c(/C=N/NC(=O)c3ccccc3O)c(=O)[nH]c2=O)cc1,"inconclusive: 50.1 µM [inhibitor, partial curve]",
CN1C(=O)C(=Cc2ccccc2Oc2ccc(Cl)cc2)C(=O)N(C)C1=O,,inactive: -0.434%
CN(C)c1ccc(C=C2C(=O)NC(=S)NC2=O)cc1[N+](=O)[O-],,inactive: -1.1%
O=C1NC(=O)N(c2ccccc2)C(=O)/C1=C/c1ccoc1,"inconclusive: 50.1 µM [inhibitor, partial curve]",
COc1ccc(/C=C/C=C2C(=O)NC(=S)NC2=O)cc1,"inconclusive: 56.2 µM [inhibitor, partial curve, poor fit]",
S=C(c1ccc(Cl)cc1)N1CCOCC1,,inactive: -19.3%
CN(Cc1ccc(OC(F)F)cc1)Cc1nc2c(Br)cc(Br)cc2c(=O)[nH]1,"inconclusive: 50.1 µM [inhibitor, partial curve, poor fit]",
Nc1c(Br)cc2c3c(cccc13)-c1ccccc1-2,,inactive: -29.5%
COc1ccc(S(=O)(=O)N(CC(=O)NCc2ccccc2OC)c2ccc(C)cc2)cc1,"inconclusive: 89.1 µM [inhibitor, partial curve, poor fit]",
COC(=O)[C@@H](N)CCCN=C(N)N[N+](=O)[O-],"inconclusive: 2.12 µM [inhibitor, partial curve, poor fit]",
CCC1Nc2ncnc(N3CCN(c4ccccn4)CC3)c2N(Cc2ccc(Br)cc2)C1=O (stereo not drawn),"inconclusive: 56.2 µM [inhibitor, partial curve, poor fit]",
COc1ccc(Br)cc1C1SCC(=O)Nc2c1c(C)nn2-c1ccccc1C (stereo not drawn),"inconclusive: 89.1 µM [inhibitor, partial curve, poor fit]",
O=C1NC(=O)N(Cc2ccc(F)cc2)C(=O)/C1=C\c1ccc([N+](=O)[O-])s1,active: 25.1 µM,
CC(COc1ccccc1)N(CCCl)Cc1ccccc1 (stereo not drawn),"inconclusive: 0.267 µM [inhibitor, full curve, poor fit]",
CN1/C(=C\C=C2C(=O)NC(=S)NC2=O)C(C)(C)c2ccccc21,active: 39.8 µM,
COc1ccc(Cc2nccc3cc(OC)c(OC)cc23)cc1OC,,inactive: -6.71%

SMILES,Potency,"activity change, negative = inhibition"
COc1ccccc1C1SCC(=O)Nc2c1c(C)nn2-c1cccc(C)c1 (stereo not drawn),"inconclusive: 56.2 µM [inhibitor, partial curve, poor fit]",
O=C(O)Cn1cc(/C=C2\C(=O)NC(=O)N(c3ccc(Br)cc3)C2=O)c2ccccc21,"inconclusive: 89.1 µM [inhibitor, single point]",
O=c1c2ccccc2nc(/C=C/c2cccnc2)n1Cc1ccccc1,active: 89.1 µM,
Cc1cc(/C=C2\C(=O)NC(=O)N(c3ccc(Br)cc3)C2=O)c(C)n1C,,inactive: -7.31%
O=C1NC(=S)NC(=O)C1=Cc1ccc2c(c1)CCN2CCCCl,"inconclusive: 22.4 µM [inhibitor, partial curve, poor fit]",
CC(C)N1C(=O)/C(=C/C=C/c2ccco2)C(=O)N(Cc2ccco2)C1=O,active: 56.2 µM,
COc1cc(O)cc2c1cc([N+](=O)[O-])c1c(C(=O)O)cc3c(c12)OCO3,"inconclusive: 56.2 µM [inhibitor, partial curve, poor fit]",
COc1ccc(-n2c(O)c(/C=C3\C=Nc4ccc(Br)cc43)c(=O)[nH]c2=O)c(OC)c1,"inconclusive: 56.2 µM [inhibitor, partial curve, poor fit]",
Cc1ccc(OCCOc2cccc(C=C3C(=O)NC(=O)NC3=O)c2)c(C)c1,"inconclusive: 89.1 µM [inhibitor, single point]",
CCCCCCn1c(N)c(C(=O)NCCN2CCOCC2)c2nc3ccccc3nc21,"inconclusive: 14.1 µM [inhibitor, partial curve, poor fit]",
Brc1c(Br)c(Br)c2n[nH]nc2c1Br,"inconclusive: 21.2 µM [inhibitor, partial curve, poor fit]",
COc1ccc(OC)c(N2C(=O)/C(=C/c3ccco3)C(=O)NC2=S)c1,active: 8.91 µM,
CC1(C)OC(c2ccccc2)=C/C(=C/C=C2C(=O)NC(=S)NC2=O)O1,"inconclusive: 31.6 µM [inhibitor, partial curve, poor fit]",
O=C1NC(=O)N(CCc2ccc(F)cc2)C(=O)/C1=C/c1ccco1,"inconclusive: 50.1 µM [inhibitor, partial curve, poor fit]",
NC(Cc1cc(O)c(O)cc1O)C(=O)O (stereo not drawn),active: 3.16 µM,
Cn1ncnc2c(=O)n(C)c(=O)nc1-2,,inactive: 13.2%
COc1ccc2sc(-c3ccccc3OC)c(-c3ccc(OCCN4CCOCC4)cc3)c2c1,"inconclusive: 70.8 µM [inhibitor, partial curve, poor fit]",
Cc1ccc(-c2nc(N(C)C3CCN(C)CC3)c3ccccc3n2)cc1,"inconclusive: 44.7 µM [inhibitor, partial curve]",
O=c1c2ccccc2nc(/C=C/c2ccccc2F)n1-c1cccc(O)c1,"inconclusive: 31.6 µM [inhibitor, partial curve, poor fit]",
CN1C[C@H](CO)C=C2c3cccc4[nH]cc(c34)C[C@H]21,"inconclusive: 12.6 µM [inhibitor, partial curve]",
CC(C)(C)c1ccc(/C=C2\Oc3cc(OC(=O)N4CCOCC4)ccc3C2=O)cc1,"inconclusive: 31.6 µM [inhibitor, partial curve, poor fit]",

SMILES,Potency,"activity change, negative = inhibition"
CCN(CC)c1ccc(/C=C2/C(=O)NC(=O)N(CC3CCCO3)C2=O)cc1 (stereo not drawn),"inconclusive: 89.1 µM [inhibitor, partial curve, poor fit]",
C[C@H]1CC[C@@H]2[C@@H](C)[C@H]3[C@H](C[C@H]4[C@@H]5CC=C6C[C@@H](O[C@@H]7O[C@H](CO)[C@H](O)[C@H](O[C@@H]8O[C@H](CO)[C@@H](O)[C@H](O)[C@H]8O)[C@H]7O[C@@H]7O[C@@H](C)[C@H](O)[C@@H](O)[C@H]7O)CC[C@]6(C)[C@H]5CC[C@]34C)N2C1,"inconclusive: 79.4 µM [inhibitor, single point]",
C[n+]1c2ccccc2nc2ccc(NCCO)cc21,active: 39.8 µM,
Cc1cccc(OP(=O)(Oc2cccc(C)c2)OC(c2ccccc2)C(F)(F)F)c1 (stereo not drawn),"inconclusive: 50.1 µM [inhibitor, partial curve, poor fit]",
O=C(Nc1ccc2c(c1)OCO2)c1cccn(Cc2cccc([N+](=O)[O-])c2)c1=O,,inactive: -3.81%
COc1ccc(N2C(=O)NC(=O)/C(=C/c3ccc([N+](=O)[O-])s3)C2=O)cc1,"inconclusive: 17.8 µM [inhibitor, full curve, poor fit]",
Cc1cc(/C=C2\C(=O)NC(=O)N(Cc3ccco3)C2=O)c(C)n1-c1ccc(O)cc1,"inconclusive: 44.7 µM [inhibitor, partial curve]",
Oc1cccc(/C=N/NP(=S)(c2ccccc2)c2ccccc2)c1,"inconclusive: 79.4 µM [inhibitor, partial curve, poor fit]",
COc1ccc(N2C(=O)/C(=C/c3ccc(C)o3)C(=O)NC2=S)cc1,"inconclusive: 89.1 µM [inhibitor, single point]",
CN1CCN(c2ccc(N)cc2)CC1,"inconclusive: 89.1 µM [inhibitor, single point]",
CN(C)[C@@H]1C(=O)C(C(N)=O)=C(O)[C@@]2(O)C(=O)C3=C(O)c4c(O)cccc4[C@@](C)(O)[C@H]3[C@H](O)[C@@H]12,active: 11.2 µM,
CCN1C(=O)/C(=C/c2ccc3c(c2)CCN3CCCCl)C(=O)NC1=S,"inconclusive: 56.2 µM [inhibitor, partial curve]",
On1ccccc1=S,"inconclusive: 89.1 µM [inhibitor, single point]",
O=[N+]([O-])c1ccc(N2CCCCCC2)c2nonc12,"inconclusive: 31.6 µM [inhibitor, full curve]",
Cc1ccc(OCCn2cccc2/C=C2/C(=O)NC(=O)N(Cc3ccco3)C2=O)cc1,"inconclusive: 89.1 µM [inhibitor, single point]",
C=CCN1C(=O)NC(=O)/C(=C/c2c(CCN(C)C(=O)c3ccccc3)cc3c(c2OC)OCO3)C1=O,"inconclusive: 15.8 µM [inhibitor, partial curve, poor fit]",
CCOc1ccc(N2C(=O)/C(=C/c3ccc(C)o3)C(=O)NC2=S)cc1,active: 22.4 µM,
N=C(N)c1ccc(-c2ccc(-c3ccc(C(=N)N)cc3)o2)cc1,active: 39.8 µM,
COc1cccc(N2C(=O)NC(=O)/C(=C\c3ccc([N+](=O)[O-])s3)C2=O)c1,active: 39.8 µM,
COC(=O)Cn1cc(/C=C2\C(=O)NC(=O)N(c3ccc(OC)cc3)C2=O)c2ccccc21,,inactive: -2.3%
Cc1cc(O)c2c(c1)C(=O)C13C(=C2O)C(=O)[C@H]2[C@@H](O)[C@@H]1[C@H]1[C@H](O)[C@@H]3C(=O)C3=C(O)c4c(O)cc(C)cc4C(=O)C312 (stereo partly drawn),"inconclusive: 3.98 µM [inhibitor, full curve, poor fit]",
